{
  "source": "the supplement of paper PMC11369174",
  "about": "“Proteome-scale characterisation of motif-based interactome rewiring by disease mutations” (Molecular Systems Biology, 2024)",
  "note": "The list shows a part of the results. Read counts after selection give these values, which scatter widely.",
  "data": [
    {"target": "EIF4E_eIF4E__P06730_1_217, P06730", "sequence (P06730 whole entry, the tested form may be a part)": "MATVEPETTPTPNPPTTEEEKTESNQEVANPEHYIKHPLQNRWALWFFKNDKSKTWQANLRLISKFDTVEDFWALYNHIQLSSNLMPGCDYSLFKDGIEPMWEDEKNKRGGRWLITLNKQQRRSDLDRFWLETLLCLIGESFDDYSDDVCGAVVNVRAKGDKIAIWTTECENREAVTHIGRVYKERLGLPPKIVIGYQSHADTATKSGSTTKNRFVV", "experiment": "mean normalised NGS count of phage-displayed peptide after selection on bait (% of reads); higher = stronger enrichment / binding", "details": "replicate selections in which the peptide was seen: 3", "values": [
      {"binder": "TPALRTPSEYARPHVM", "note": "[RERE 1250-1265 mut Q9P2R6.L1256P]", "mean normalised NGS count": 0.259}
    ]},
    {"target": "T1, EPHA3_Pkinase__P29320_606_947", "T1 chain": "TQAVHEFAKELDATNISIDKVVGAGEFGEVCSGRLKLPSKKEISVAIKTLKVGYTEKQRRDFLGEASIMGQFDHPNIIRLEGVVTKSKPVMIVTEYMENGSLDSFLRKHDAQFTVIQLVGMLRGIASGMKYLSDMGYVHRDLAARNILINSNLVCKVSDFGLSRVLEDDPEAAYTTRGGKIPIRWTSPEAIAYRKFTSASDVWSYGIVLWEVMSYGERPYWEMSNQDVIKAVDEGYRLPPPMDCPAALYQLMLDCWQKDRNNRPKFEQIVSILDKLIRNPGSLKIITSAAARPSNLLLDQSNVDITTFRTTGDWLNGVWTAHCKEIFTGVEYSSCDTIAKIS", "experiment": "mean normalised NGS count of phage-displayed peptide after selection on bait (% of reads); higher = stronger enrichment / binding", "details": "replicate selections in which the peptide was seen: 3", "values": [
      {"binder": "WVAHRTAQHLSATVAE", "note": "[ZNF526 155-170 mut Q8TF50.K160T]", "mean normalised NGS count": 6.98}
    ]},
    {"target": "T2, EPHB2_Pkinase__P29323_604_898", "T2 chain": "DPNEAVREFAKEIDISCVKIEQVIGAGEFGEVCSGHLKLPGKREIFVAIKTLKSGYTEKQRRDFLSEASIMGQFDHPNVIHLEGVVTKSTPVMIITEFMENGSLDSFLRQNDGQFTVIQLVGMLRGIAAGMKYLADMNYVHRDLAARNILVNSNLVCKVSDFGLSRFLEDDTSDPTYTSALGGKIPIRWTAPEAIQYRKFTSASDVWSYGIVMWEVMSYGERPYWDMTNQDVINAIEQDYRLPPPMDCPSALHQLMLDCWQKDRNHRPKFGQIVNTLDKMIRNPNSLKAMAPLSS", "experiment": "mean normalised NGS count of phage-displayed peptide after selection on bait (% of reads); higher = stronger enrichment / binding", "details": "replicate selections in which the peptide was seen: 3", "values": [
      {"binder": "WVAHRTAQHLSATVAE", "note": "[ZNF526 155-170 mut Q8TF50.K160T]", "mean normalised NGS count": 0.325},
      {"binder": "LLQTMLITDTTNLSAL", "note": "[HNF1A 518-533 mut P20823.P519L]", "mean normalised NGS count": 0.0583}
    ]},
    {"target": "EIF4E_eIF4E__P06730_1_217, P06730", "experiment": "mean normalised NGS count of phage-displayed peptide after selection on bait (% of reads); higher = stronger enrichment / binding", "details": "replicate selections in which the peptide was seen: 6", "values": [
      {"binder": "LESSQVKYLRRELIEL", "note": "[TFG 97-112 wt]", "mean normalised NGS count": 70.3},
      {"binder": "PSFYDPQGPWALAWEE", "note": "[NLRP12 301-316 mut P59046.H304Y]", "mean normalised NGS count": 0.376}
    ]},
    {"target": "T2, EPHB2_Pkinase__P29323_604_898", "experiment": "mean normalised NGS count of phage-displayed peptide after selection on bait (% of reads); higher = stronger enrichment / binding", "details": "replicate selections in which the peptide was seen: 2", "values": [
      {"binder": "SLAAIEKRMAEKQARS", "note": "[SCN5A 20-35 mut Q14524.G35S]", "mean normalised NGS count": 0.103},
      {"binder": "HLAALLESGLSKEALI", "note": "[HNF1A 12-27 mut P20823.L12H]", "mean normalised NGS count": 3.78},
      {"binder": "VVDALLAQGLVVDVPA", "note": "[INPP5E 488-503 wt]", "mean normalised NGS count": 19},
      {"binder": "LLNSALSENPVVLQAT", "note": "[BRCA2 134-149 mut P51587.S142N]", "mean normalised NGS count": 0.102}
    ]},
    {"target": "T3, EPS15_EH__P42566_121_215", "T3 chain": "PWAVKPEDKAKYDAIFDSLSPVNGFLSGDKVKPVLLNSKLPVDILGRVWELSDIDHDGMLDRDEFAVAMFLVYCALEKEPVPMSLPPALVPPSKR", "experiment": "mean normalised NGS count of phage-displayed peptide after selection on bait (% of reads); higher = stronger enrichment / binding", "details": "replicate selections in which the peptide was seen: 2", "values": [
      {"binder": "SHEWRAFLQAILEHEE", "note": "[SMARCA2 1210-1225 mut P51531.R1213W]", "mean normalised NGS count": 1.55},
      {"binder": "DFFLQSLYSLTGLDAG", "note": "[SLC26A1 552-567 wt]", "mean normalised NGS count": 0.94},
      {"binder": "SEQNPFLFQEGKLFEM", "note": "[ANK2 3096-3111 wt]", "mean normalised NGS count": 2.8},
      {"binder": "SHEWRAFLQAILEHEE", "note": "[SMARCA4 1210-1225 mut P51531.R1213W]", "mean normalised NGS count": 1.55}
    ]},
    {"target": "T4, DOK1_PTB__Q99704_151_256", "T4 chain": "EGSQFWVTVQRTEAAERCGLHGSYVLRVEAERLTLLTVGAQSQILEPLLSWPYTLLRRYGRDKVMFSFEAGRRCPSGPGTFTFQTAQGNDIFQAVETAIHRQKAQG", "experiment": "mean normalised NGS count of phage-displayed peptide after selection on bait (% of reads); higher = stronger enrichment / binding", "details": "replicate selections in which the peptide was seen: 5", "values": [
      {"binder": "WRELLADGEFTHEMQV", "note": "[ASXL1 320-335 mut Q8IXJ9.R323L]", "mean normalised NGS count": 9.86},
      {"binder": "ALLGGSEIWRDINFAH", "note": "[TYR 187-202 mut P14679.D199N]", "mean normalised NGS count": 2.9},
      {"binder": "WSWVEHQDDDKVLIYS", "note": "[STAT2 612-627 mut P52630.C612W]", "mean normalised NGS count": 53.3},
      {"binder": "WKVLSSSGSEAAVPSV", "note": "[PLEC 976-991 wt]", "mean normalised NGS count": 0.162},
      {"binder": "VEVFSGDGWNYLLAFQ", "note": "[WDFY3 2629-2644 mut Q8IZQ1.R2637W]", "mean normalised NGS count": 0.109}
    ]},
    {"target": "T3, EPS15_EH__P42566_121_215", "experiment": "mean normalised NGS count of phage-displayed peptide after selection on bait (% of reads); higher = stronger enrichment / binding", "details": "replicate selections in which the peptide was seen: 3", "values": [
      {"binder": "KLEHSNNPFNVYIESD", "note": "[KCNE1 70-85 mut P15382.D76N]", "mean normalised NGS count": 0.358}
    ]},
    {"target": "T5, EIF_DEAD__P60842_29_237", "T5 chain": "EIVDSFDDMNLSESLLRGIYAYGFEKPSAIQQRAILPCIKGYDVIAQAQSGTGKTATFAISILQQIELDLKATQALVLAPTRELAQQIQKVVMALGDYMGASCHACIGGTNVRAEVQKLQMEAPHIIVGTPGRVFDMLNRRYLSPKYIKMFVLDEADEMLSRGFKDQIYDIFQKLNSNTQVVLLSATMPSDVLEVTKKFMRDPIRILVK", "experiment": "mean normalised NGS count of phage-displayed peptide after selection on bait (% of reads); higher = stronger enrichment / binding", "details": "replicate selections in which the peptide was seen: 3", "values": [
      {"binder": "VKIERSDRIYWYWPED", "note": "[TTN 2116-2131 wt]", "mean normalised NGS count": 0.00832},
      {"binder": "LSDRIYWYWPEDNVAE", "note": "[TTN 2120-2135 mut Q8WZ42.R2120L]", "mean normalised NGS count": 15.2}
    ]},
    {"target": "T1, EPHA3_Pkinase__P29320_606_947", "experiment": "mean normalised NGS count of phage-displayed peptide after selection on bait (% of reads); higher = stronger enrichment / binding", "details": "replicate selections in which the peptide was seen: 2", "values": [
      {"binder": "MAQMAITAAGVAVGSA", "note": "[CHCHD2 56-71 mut Q9Y6H1.T61I]", "mean normalised NGS count": 0.133},
      {"binder": "VVDALLAQGLVVDVPA", "note": "[INPP5E 488-503 wt]", "mean normalised NGS count": 0.639},
      {"binder": "LLQTMLITDTTNLSAL", "note": "[HNF1A 518-533 mut P20823.P519L]", "mean normalised NGS count": 0.0528},
      {"binder": "MAQMAITAAGVAVGSA", "note": "[CHCHD2P9 56-71 mut Q9Y6H1.T61I]", "mean normalised NGS count": 0.133}
    ]},
    {"target": "T6, EIF3B_RRM__P55884_172_274", "T6 chain": "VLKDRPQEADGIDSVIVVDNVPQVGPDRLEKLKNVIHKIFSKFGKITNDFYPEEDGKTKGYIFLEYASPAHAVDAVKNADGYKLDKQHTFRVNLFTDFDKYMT", "experiment": "mean normalised NGS count of phage-displayed peptide after selection on bait (% of reads); higher = stronger enrichment / binding", "details": "replicate selections in which the peptide was seen: 4", "values": [
      {"binder": "SLKDRIERRRAERAEQ", "note": "[TNNT2 132-147 wt]", "mean normalised NGS count": 1.23},
      {"binder": "VRNWTDLENSIVSVER", "note": "[ABCC6 1220-1235 wt]", "mean normalised NGS count": 0.326}
    ]},
    {"target": "T6, EIF3B_RRM__P55884_172_274", "experiment": "mean normalised NGS count of phage-displayed peptide after selection on bait (% of reads); higher = stronger enrichment / binding", "details": "replicate selections in which the peptide was seen: 6", "values": [
      {"binder": "STGFSDEGGWLTRLLQ", "note": "[SQSTM1 403-418 mut Q13501.M404T]", "mean normalised NGS count": 14.2},
      {"binder": "SMGFSDEGGWLTRLLQ", "note": "[SQSTM1 403-418 wt]", "mean normalised NGS count": 48.4}
    ]},
    {"target": "T7, IRS2_PTB__Q9Y4H2_188_304", "T7 chain": "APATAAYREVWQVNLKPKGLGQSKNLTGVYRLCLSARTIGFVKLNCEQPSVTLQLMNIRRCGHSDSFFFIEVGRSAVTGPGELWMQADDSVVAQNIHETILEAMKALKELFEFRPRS", "experiment": "mean normalised NGS count of phage-displayed peptide after selection on bait (% of reads); higher = stronger enrichment / binding", "details": "replicate selections in which the peptide was seen: 4", "values": [
      {"binder": "VEVFSGDGWNYLLAFQ", "note": "[WDFY3 2629-2644 mut Q8IZQ1.R2637W]", "mean normalised NGS count": 21.7}
    ]},
    {"target": "EIF4E_eIF4E__P06730_1_217, P06730", "experiment": "mean normalised NGS count of phage-displayed peptide after selection on bait (% of reads); baits are purified protein domains named by gene / domain / UniProt id / residues; peptides come from disordered regions of human proteins; higher = stronger enrichment / binding", "details": "replicate selections in which the peptide was seen: 2", "values": [
      {"binder": "AAADIISSLSEDQVPG", "note": "[PIEZO2 2216-2231 mut Q9H5I5.T2221I]", "mean normalised NGS count": 0.0561}
    ]}
  ]
}
